Over roughly 18,000 sequences, “TetR repression strength (sort-seq, GFP reporter)” has its median near 0.23; the highest 2% begin near 0.68. The list shows a part of the results.

Sequence of UniProt P04483 (P04483 whole entry): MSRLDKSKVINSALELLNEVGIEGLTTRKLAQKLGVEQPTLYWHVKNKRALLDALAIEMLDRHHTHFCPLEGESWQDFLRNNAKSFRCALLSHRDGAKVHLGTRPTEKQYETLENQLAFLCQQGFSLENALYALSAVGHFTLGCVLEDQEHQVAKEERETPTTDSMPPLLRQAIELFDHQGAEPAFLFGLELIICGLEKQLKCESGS

This test has as its target TetR (class B, Tn10) (UniProt P04483). Put plainly: TetR repression strength (sort-seq, GFP reporter) (relative to tetO2 = 1); higher = stronger repression. The following applies: E. coli. The method in brief:
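E. coli SIG10-MAX carried a low-copy plasmid library with eight randomized operator positions between a constitutive promoter and sfGFP, with TetR constitutively expressed. Cells grew 5 h at 37 °C in LB with 50 µg/mL chloramphenicol, then 10^6 cells were FACS-sorted into 13 fluorescence bins, each Illumina-sequenced. Repression strength is the top bin index plus one minus the read-weighted mean bin, divided by the wild-type operator value. Three independent transformations; variants with ≥30 reads in all replicates and CV ≤0.5 were averaged.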
With TCCCGAGGAGTGCGGGAGA, the TetR repression strength came to 0.453.
The result for TCCCGCCAAGTGCATGAGA reads 0.138; that for TCCCGACGAGTCCTCGAGA, 0.297; that for TCCCCTGGAGTCCGAGAGA, 0.
In turn, TCCCCGCTAGTGCACGAGA showed a TetR repression strength of 0.403.
The result for TCCCCTTGAGTAATGGAGA reads 0.0959; that for TCCCGGGCAGTCACCGAGA, 0.216; that for TCCCATGGAGTACAAGAGA, 0.262.
The figure for TCCCGTGGAGTTGTCGAGA is 0.388.
The figure for TCCCGCCGAGTGACCGAGA is 0.153; for TCCCACGGAGTTAGCGAGA it is 0.518; for TCCCTGTTAGTGAATGAGA it is 0.436.
As for TCCCCCGAAGTCAAGGAGA, the TetR repression strength was 0.21.
The result for TCCCGTGGAGTCGTTGAGA reads 0.197.
The figure for TCCCTTTTAGTCATGGAGA is 0.109; for TCCCGTCAAGTGAGGGAGA it is 0.224; for TCCCCTACAGTCGCAGAGA it is 0.294.
The result for TCCCTACCAGTGCAAGAGA reads 0.199; that for TCCCTCGTAGTTATGGAGA, 0.291.
Regarding TCCCTGTGAGTTAGAGAGA, the TetR repression strength is 0.461.
Take TCCCGTACAGTTAACGAGA: the TetR repression strength was determined as 0.226.
On to TCCCGTAGAGTAAAAGAGA, for which the TetR repression strength was found to be 0.298.
The result for TCCCTGATAGTTCGAGAGA reads 0.244; that for TCCCGCCAAGTGTGGGAGA, 0.091.
The result for TCCCAGGTAGTAGATGAGA reads 0.192; that for TCCCATGTAGTGCATGAGA, 0.207; that for TCCCGTCGAGTCGCAGAGA, 0.442.
Take TCCCTCTGAGTGGATGAGA: the TetR repression strength came to 0.217.
The figure for TCCCTTCGAGTTTATGAGA is 0.513.
TCCCCGACAGTCGAAGAGA returned a TetR repression strength of 0.188.
The result for TCCCGGTCAGTAGTGGAGA reads 0.294; that for TCCCGACAAGTTAGTGAGA, 0.154.
The result for TCCCCGCCAGTGACCGAGA reads 0.207; that for TCCCGTACAGTGGAGGAGA, 0.194.
The result for TCCCGCGAAGTTGGTGAGA reads 0.202; that for TCCCGGCTAGTTGATGAGA, 0.374.
Sequence TCCCCTAGAGTTTCGGAGA had a TetR repression strength of 0.0921.
The result for TCCCAGCTAGTCGTCGAGA reads 0.418; that for TCCCACGGAGTTTCTGAGA, 0.231.
With TCCCGGGAAGTATGGGAGA, the TetR repression strength came to 0.136.
The figure for TCCCCTTCAGTTATTGAGA is 0.396; for TCCCCTCTAGTAATGGAGA it is 0.574; for TCCCTCCAAGTGGTTGAGA it is 0.177.
The result for TCCCGTCAAGTGTACGAGA reads 0.0428; that for TCCCTGTGAGTGACTGAGA, 0.0801.
The figure for TCCCAGTAAGTTGACGAGA is 0.0146; for TCCCGCGAAGTAGCGGAGA it is 0.206; for TCCCCCGTAGTACACGAGA it is 0.231.
TCCCAGGCAGTGTGTGAGA showed a TetR repression strength of 0.207.
TCCCGGGGAGTCTCCGAGA returned a TetR repression strength of 0.24.
Consider TCCCGGCCAGTAGCGGAGA, for which the TetR repression strength worked out at 0.0259.
The figure for TCCCGGGGAGTAATGGAGA is 0.25.
Consider TCCCCGCAAGTGCTCGAGA, for which the TetR repression strength turned out to be 0.373.
The figure for TCCCTACAAGTATGCGAGA is 0.286; for TCCCAGATAGTCCTCGAGA it is 0.235.
In turn, TCCCAACAAGTTAGTGAGA returned a TetR repression strength of 0.504.
The result for TCCCCAAAAGTGGATGAGA reads 0.232.
TCCCGCCAAGTCTTTGAGA showed a TetR repression strength of 0.514.
The sequence TCCCAGGTAGTATCGGAGA came in with a TetR repression strength of 0.023.
The result for TCCCAGTTAGTGGTTGAGA reads 0.12; that for TCCCGTCTAGTCAGGGAGA, 0.266.
The result for TCCCCTGCAGTCAGAGAGA reads 0.15; that for TCCCTGGTAGTGTGCGAGA, 0.0311.
Take TCCCACCTAGTATCCGAGA: the TetR repression strength was determined as 0.311.
The figure for TCCCAACTAGTGGTGGAGA is 0.352; for TCCCGGGGAGTCTATGAGA it is 0.521; for TCCCGAATAGTCAATGAGA it is 0.268.
TCCCAGAAAGTTCGCGAGA registered a TetR repression strength of 0.211.
TCCCACTAAGTCTTTGAGA had a TetR repression strength of 0.143.
With TCCCAATCAGTATGTGAGA, the TetR repression strength was 0.436.
The result for TCCCATGCAGTCGAGGAGA reads 0.258; that for TCCCGAGTAGTAACGGAGA, 0.461.
The figure for TCCCGGTTAGTAGAGGAGA is 0.224; for TCCCGATAAGTATTTGAGA it is 0.207; for TCCCAGGCAGTAGGCGAGA it is 0.205.
TCCCGCCCAGTAAAAGAGA came in with a TetR repression strength of 0.25.
TCCCCACAAGTTCGGGAGA displayed a TetR repression strength of 0.0657.
The figure for TCCCCGCAAGTAGCTGAGA is 0.126.
Turning to TCCCAGCCAGTCTAAGAGA, the TetR repression strength worked out at 0.258.
In turn, TCCCAATTAGTTTACGAGA came in with a TetR repression strength of 0.159.
Consider TCCCGACTAGTCGAGGAGA, for which the TetR repression strength turned out to be 0.233.
The sequence TCCCAGAGAGTTGAGGAGA displayed a TetR repression strength of 0.191.
The sequence TCCCGCATAGTCTCTGAGA displayed a TetR repression strength of 0.18.
The result for TCCCGTCTAGTGATTGAGA reads 0.279; that for TCCCTTTAAGTACGGGAGA, 0.177; that for TCCCACCTAGTGGAAGAGA, 0.54.
The figure for TCCCAGAAAGTGGTTGAGA is 0.329; for TCCCGCTTAGTCGTCGAGA it is 0.185.
The figure for TCCCTGCAAGTCAAAGAGA is 0.0554; for TCCCCTTAAGTTTCGGAGA it is 0.506; for TCCCACGCAGTGGTCGAGA it is 0.246.
Sequence TCCCATTTAGTAATGGAGA yielded a TetR repression strength of 0.103.
On to TCCCACGGAGTTAAGGAGA, for which the TetR repression strength was determined as 0.198.
The result for TCCCGAGGAGTTGGGGAGA reads 0.152; that for TCCCCGAAAGTTAGTGAGA, 0.225.
The result for TCCCGTTGAGTAACAGAGA reads 0.299; that for TCCCGTGAAGTAGCAGAGA, 0.578.
The sequence TCCCGCATAGTTCAAGAGA displayed a TetR repression strength of 0.626.
The result for TCCCCGGCAGTTGGCGAGA reads 0.437.
TCCCAAATAGTTGAAGAGA gave a TetR repression strength of 0.277.
The result for TCCCTCTAAGTTGTGGAGA reads 0.376; that for TCCCCACAAGTGCCAGAGA, 0.495.

The values above are taken from a collection of fitness landscapes (doi:10.1038/s41467-024-54723-y).
